Measurements as given in PMC6431625 (Frontiers in Endocrinology, 2019).
Like-named read-outs stand apart in the source and are kept apart here.

Key:
AT1R-Venus/FP-WT dimer [1] = molecular target: T1, AT1R-Venus/FP-WT dimer (Homo sapiens, UniProt P30556+P43088); assay: cell-based
AT1R-Venus/FP-WT dimer [2] = molecular target: T1, AT1R-Venus/FP-WT dimer; conditions: for Effect of endocytosis inhibitor pretreatment on PGF2α-induced β-arrestin 1/2-RlucII recruitment: pretreatment 30 min, sucrose 450 mM, phenylarsine oxide 2.5 μM, concanavalin A 0.4 g/L, PGF2α 1 μM

Row | EC50 (AT1R-Venus/FP-WT dimer [1]) [nM] | Effect of endocytosis inhibitor pretreatment on PGF2α-induced β-arrestin 1/2-RlucII recruitment (AT1R-Venus/FP-WT dimer [2]) | Molecule | other results
1 | 0.89 |  | O=C(O)CCC/C=C\C[C@@H]1[C@@H](/C=C/[C@@H](O)COc2cccc(C(F)(F)F)c2)[C@H](O)C[C@@H]1O (racemic) [Fluprostenol] | 
2 |  |  | O=C(O)CCC/C=C\C[C@@H]1[C@@H](/C=C/[C@H](O)C2Cc3ccccc3C2)[C@@H](F)C[C@@H]1O [AL-8810] | EC50 (AT1R-Venus/FP-WT dimer [2]; read-out: EC50 values for β-arrestin 2-RlucII recruitment to the AT1R-Venus/FP-WT dimer, Mean ± SEM, HEK 293 parental cells transiently expressing β-arrestin 2-RlucII, AT1R-Venus and FP-WT, n = 3, unit M): 3000 nM
3 |  | diminished | OC[C@H]1O[C@@](CO)(O[C@H]2O[C@H](CO)[C@@H](O)[C@H](O)[C@H]2O)[C@@H](O)[C@@H]1O [Sucrose, sucrose] | 
4 | 0.48 |  | CC(C)OC(=O)CCC/C=C\C[C@@H]1[C@@H](/C=C/C(F)(F)COc2ccccc2)[C@H](O)C[C@@H]1O [Tafluprost] | 
5 |  |  | CCCCc1nc(Cl)c(CO)n1Cc1ccc(-c2ccccc2-c2nn[nH]n2)cc1 [losartan] | Effect of AT1R antagonist on Ang II-induced β-arrestin 1/2 recruitment (AT1R-Venus/FP-WT dimer [2]; losartan 100 μM, Ang II 1 μM): blocked
6 |  | potentiated | concanavalin A | 
